# Results as given in PubChem BioAssay AID1476 (National Center for Advancing Translational Sciences (NCATS), 2009).
# The whole screen tested about 200,000 compounds, of which about 4,500 (2.2%) were called active. Inconclusive means that the source gave no clear call. Such entries were picked first, then a sample of the others. The call rests on the fitted dose curve; in most records, active means well fitted inhibition curve with a large enough effect; inconclusive means small, poorly fitted or top-dose-only effect, or effect the other way; inactive means flat fitted curve, though single readings scatter. A potency beside an inconclusive call is a rough fit, not a confirmed value.
# Target: Cruzipain (Trypanosoma cruzi) (UniProt P25779)
# UniProt P25779, sequence (P25779 whole entry, looked up): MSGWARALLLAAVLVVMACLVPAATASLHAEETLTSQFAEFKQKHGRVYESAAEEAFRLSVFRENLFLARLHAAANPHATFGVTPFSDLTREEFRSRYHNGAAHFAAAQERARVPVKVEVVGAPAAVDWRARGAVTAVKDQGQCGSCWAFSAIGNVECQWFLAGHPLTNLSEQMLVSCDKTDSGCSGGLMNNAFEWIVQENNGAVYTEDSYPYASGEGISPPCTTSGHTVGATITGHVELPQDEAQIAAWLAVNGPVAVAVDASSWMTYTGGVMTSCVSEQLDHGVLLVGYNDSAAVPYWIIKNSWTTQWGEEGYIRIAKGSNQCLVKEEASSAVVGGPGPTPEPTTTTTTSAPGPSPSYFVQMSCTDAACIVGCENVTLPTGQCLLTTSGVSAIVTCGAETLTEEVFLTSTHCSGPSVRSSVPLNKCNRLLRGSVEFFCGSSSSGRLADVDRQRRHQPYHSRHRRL
# Assay: qHTS Assay for Promiscuous and Specific Inhibitors of Cruzain (without detergent); further: nearly all actives have a fitted effect of over 40% in size;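 on max response, negative = inhibition: plate controls were enzyme without inhibitor for no effect and buffer without enzyme for full effect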
# Settings: purified cruzain, Z-FR-AMC fluorescence, no detergent
# Summary of the method: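 Purified cruzain at 1.5 nM, pre-incubated 15 min with compound at room temperature in 100 mM sodium acetate pH 5.5, 5 mM DTT, 0.00005% Triton X-100. Reaction started with 2 uM Z-FR-AMC; AMC fluorescence increase over 60 s gives rate.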
# Potency means the concentration at half of the fitted maximal effect; tags describe the fitted curve by direction and shape.
SMILES,Potency,"max response, negative = inhibition"
CCOC(=O)c1nn(-c2ccccc2)c(C(=O)OCC)c1N,"inconclusive: 31.6 µM [activator, single point]",
O=C(NC(=S)Nc1cc(C(F)(F)F)ccc1N1CCOCC1)c1sc2ccccc2c1Cl,active: 20 µM,
Cc1cc2nc(-c3ccc(SCC(=O)Nc4ccc(S(=O)(=O)N5CCCC5)cc4)nc3)[nH]c2cc1C,"inconclusive: 39.8 µM [inhibitor, single point]",
Cc1ccc(OCC(=O)NC(=S)Nc2cccc(NC(=O)c3ccccc3Cl)c2)cc1,"inconclusive: 39.8 µM [inhibitor, single point]",
COC(=O)c1sccc1NC(=O)/C=C\c1ccc(Cl)cc1Cl,active: 3.16 µM,
COc1ccc(NC(=O)C(C)Sc2nnc3c4c(nc(-c5ccc(OC)cc5)n23)CC(C)(C)OC4)cc1 (configuration not stated),"inconclusive: 20 µM [activator, partial curve]",
CCOc1ccc(NC(=O)CSc2nnc(Cc3cccn3C)n2-c2ccc(OC)cc2)cc1,"inconclusive: 39.8 µM [activator, single point]",
CC1(C)NC(=O)N(CCOCCOc2cccc(Oc3ccccc3)c2)C1=O,"inconclusive: 31.6 µM [activator, single point]",
Cc1oc2ccc(O)c(CN3CCCCCC3)c2c1C(=O)Nc1cccc(C(F)(F)F)c1,"inconclusive: 39.8 µM [inhibitor, single point]",
Cc1ccc(C)c(N2CCN(C(=O)Cn3nc(C)c4sc5ccccc5c4c3=O)CC2)c1,"inconclusive: 31.6 µM [inhibitor, single point]",
Nc1ccc(-c2ccc(N)c(Cl)c2)cc1Cl,,inactive: -16.5%
COc1ccccc1NS(=O)(=O)c1cn(C)c(C)n1,,inactive: -2.56%
CC(=O)NC(NC(=S)Nc1ccc(N=Nc2ccccc2C)cc1C)C(Cl)(Cl)Cl (configuration not stated),active: 7.94 µM,
CCOC(=O)c1c(NC(C)=O)c2c3c(sc2n1Cc1cc(C)ccc1C)CCCC3,,inactive: -9.44%
CCCSc1nnc(NC(=O)Nc2ccc(F)cc2)s1,"inconclusive: 39.8 µM [inhibitor, single point]",
CCc1ccc(-n2c(=O)c3ccccc3n(Cc3ccccc3C#N)c2=O)cc1,,inactive: -2.33%
CCCCn1c(=O)[nH]c(=O)c2c1nc(CN1C(=O)c3ccccc3S1(=O)=O)n2CCC,active: 25.1 µM,
O=C(C1CC1)N1CCc2cc(Br)cc(S(=O)(=O)NCCN3CCOCC3)c21,"inconclusive: 0.631 µM [inhibitor, partial curve]",
CCCCC(CC)CNC(=O)CCCCCn1c(=O)[nH]c2ccsc2c1=O (configuration not stated),"inconclusive: 39.8 µM [activator, single point]",
O=C(c1ccc2c(c1)N(Cc1ccc(Cl)cc1)C(=O)c1ccccc1S2(=O)=O)N1CCOCC1,"inconclusive: 31.6 µM [activator, single point]",
CC1(C)CC(=O)c2c(n(S(=O)(=O)c3ccccc3)c3ccc(NS(=O)(=O)c4ccccc4)cc23)C1,active: 31.6 µM,

SMILES,Potency,"max response, negative = inhibition"
Nc1cc(C(=O)OCC(=O)NC(c2ccccc2)c2ccccc2)ccc1Cl,active: 25.1 µM,
COc1ccc(-c2csc(/C(C#N)=C\c3ccc(OC)c([N+](=O)[O-])c3)n2)cc1,"inconclusive: 31.6 µM [inhibitor, single point]",
COc1ccccc1Nc1c2c(nc3ccc(NC(=O)c4ccc(N(C)C)cc4)cc13)CCCC2,"inconclusive: 39.8 µM [inhibitor, single point]",
Cc1ccc(-n2c(=O)c3oc4ccccc4c3n(Cc3cccc(F)c3)c2=O)cc1C,"inconclusive: 39.8 µM [inhibitor, single point]",
Cc1ccc(C(=O)c2c(N)c(C(=O)Nc3cccc(C(F)(F)F)c3)c3ccccn23)cc1,"inconclusive: 0.0251 µM [activator, full curve, poor fit]",
COc1cc(Nc2nc(-c3ccc(OC)c(OC)c3)nc3ccccc23)cc(OC)c1,"inconclusive: 25.1 µM [activator, single point]",
CCOc1ccc(/C=C/C(=O)Nc2ccc(N3CCOCC3)cc2)cc1,"inconclusive: 6.31 µM [inhibitor, partial curve]",
Cc1cc(C)c(NC(=O)C(=O)NCCc2csc(-c3ccc(F)cc3)n2)c(C)c1,,inactive: -14%
CSc1ccc(CCNC(=O)c2csc3c2CCCCC3)cc1,"inconclusive: 3.16 µM [inhibitor, single point]",
N/C(=N\OC(=O)N1c2ccccc2Sc2ccccc21)c1ccc(Br)cc1,"inconclusive: 7.94 µM [inhibitor, single point]",
C=CCn1c2ccccc2c2nnc(SCN3C(=O)c4ccccc4C3=O)nc21,"inconclusive: 31.6 µM [inhibitor, single point]",
COc1ccc(N2CCCn3c2nc2c3c(=O)n(CCN3CCOCC3)c(=O)n2C)cc1,,inactive: -0.587%
O=C1c2cccc(OCC(=O)N3N=C(c4cccs4)CC3c3ccc(F)cc3)c2CCN1Cc1cccnc1 (configuration not stated),"inconclusive: 12.6 µM [inhibitor, partial curve]",
CCOC(=O)N1CCC(N2Cc3cccc(C(=O)NCc4ccc(C)cc4)c3C2=O)CC1,"inconclusive: 25.1 µM [activator, partial curve]",
CCOC(=O)c1ccc(NC(=O)CSc2nnc(COc3ccccc3OC)n2CC)cc1,,inactive: 4.91%
O=C(N/N=C/c1ccccc1Cl)c1[nH]c2ccc(Br)cc2c1-c1ccccc1,active: 12.6 µM,
O=[N+]([O-])c1ccc(-c2cnc(SCc3ccccc3Cl)[nH]2)cc1,"inconclusive: 25.1 µM [inhibitor, single point]",
CCc1cnc2c(c1SC(C(C)=O)C(=O)N(C)C)c(=O)n(C)c(=O)n2C (configuration not stated),,inactive: -10.7%
O=C(COc1ccc(Cl)cc1)N1CCCC1,,inactive: -14.6%
Cc1ccc(CNC(=O)c2c(Nc3ccccc3C)sc(C(=O)c3ccc(F)cc3)c2N)cc1,"inconclusive: 3.16 µM [inhibitor, full curve]",
COc1cccc(-c2nn(C)c3sc(C(=O)NCc4ccc(OC)cc4OC)cc23)c1,"inconclusive: 7.94 µM [activator, single point]",
